Measurements: the supplement of paper PMC6531468
The other results are listed elsewhere or left out. These are enrichments in a pooled selection; single values are uncertain. Scores sum up all selected molecules that hold the word; the word was not tested alone.

Columns and labels:
Assay in all cases: 6-mer SELEX enrichment z-score vs GST control; IMP3 is the RNA-binding protein IGF2BP3; higher = more enriched by binding
IMP3 KH1-4 = conditions: construct: KH1-4 (164-579); SELEX round: R4
Method: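 SELEX-seq with GST-tagged IMP3 KH1-4 (Pro164-Lys579) and an N40 RNA pool, round 4. 6-mer z-score of sequence-tag enrichment normalised to the corresponding GST SELEX round; RNA k-mers written as DNA (T for U).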

IMP3 RRM1-2 = conditions: construct: RRM1-2 (1-163); SELEX round: R2
Method: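 SELEX-seq with GST-tagged IMP3 RRM1-2 (Met1-Asn163) and an N40 RNA pool, round 2. 6-mer enrichment z-score normalised to GST SELEX. RNA written as DNA (T = U).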

IMP3 full-length = IMP3 full-length (UniProt O00425); conditions: construct: FL IMP3 (1-579); SELEX round: R4
Method: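 SELEX-seq with GST-tagged full-length IMP3 and an N40 RNA pool, round 4. Each 6-mer is scored as an enrichment z-score of sequence tags containing it, normalised to the matching GST SELEX round. RNA written as DNA (T = U).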

IMP3 KH1-2 = conditions: construct: KH1-2 (164-376); SELEX round: R4
Method: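 SELEX-seq with GST-tagged IMP3 KH1-2 (Pro164-Phe376) and an N40 RNA pool, round 4 (stringent 300/600 mM KCl washes). 6-mer z-score of sequence-tag enrichment normalised to the corresponding GST SELEX round; RNA k-mers written as DNA (T for U).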

IMP3 KH3-4 = conditions: construct: KH3-4 (377-579); SELEX round: R4
Method: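 SELEX-seq with GST-tagged IMP3 KH3-4 (Pro377-Lys579) and an N40 RNA pool, round 4. 6-mer z-score of sequence-tag enrichment normalised to the corresponding GST SELEX round; RNA k-mers written as DNA (T for U).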

Chain of IMP3 KH1-4 (chain, as listed by the source): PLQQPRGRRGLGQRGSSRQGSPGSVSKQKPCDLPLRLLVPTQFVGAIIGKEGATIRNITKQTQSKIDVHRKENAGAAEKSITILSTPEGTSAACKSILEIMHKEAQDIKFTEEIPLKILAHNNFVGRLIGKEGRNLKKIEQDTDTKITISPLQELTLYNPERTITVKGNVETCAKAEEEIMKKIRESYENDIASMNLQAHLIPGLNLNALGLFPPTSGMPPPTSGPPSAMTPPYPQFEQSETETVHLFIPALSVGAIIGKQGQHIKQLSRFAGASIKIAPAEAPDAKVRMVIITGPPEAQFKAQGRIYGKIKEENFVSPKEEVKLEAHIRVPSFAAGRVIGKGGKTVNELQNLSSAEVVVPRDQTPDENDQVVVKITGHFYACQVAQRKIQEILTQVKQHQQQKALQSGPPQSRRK
Chain of IMP3 RRM1-2 (chain, as listed by the source): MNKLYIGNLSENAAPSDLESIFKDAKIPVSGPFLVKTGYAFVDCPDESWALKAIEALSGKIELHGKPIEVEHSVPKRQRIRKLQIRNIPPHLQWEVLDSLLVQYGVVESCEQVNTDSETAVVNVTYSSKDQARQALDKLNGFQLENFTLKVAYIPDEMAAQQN
Chain of UniProt O00425 (O00425 whole entry): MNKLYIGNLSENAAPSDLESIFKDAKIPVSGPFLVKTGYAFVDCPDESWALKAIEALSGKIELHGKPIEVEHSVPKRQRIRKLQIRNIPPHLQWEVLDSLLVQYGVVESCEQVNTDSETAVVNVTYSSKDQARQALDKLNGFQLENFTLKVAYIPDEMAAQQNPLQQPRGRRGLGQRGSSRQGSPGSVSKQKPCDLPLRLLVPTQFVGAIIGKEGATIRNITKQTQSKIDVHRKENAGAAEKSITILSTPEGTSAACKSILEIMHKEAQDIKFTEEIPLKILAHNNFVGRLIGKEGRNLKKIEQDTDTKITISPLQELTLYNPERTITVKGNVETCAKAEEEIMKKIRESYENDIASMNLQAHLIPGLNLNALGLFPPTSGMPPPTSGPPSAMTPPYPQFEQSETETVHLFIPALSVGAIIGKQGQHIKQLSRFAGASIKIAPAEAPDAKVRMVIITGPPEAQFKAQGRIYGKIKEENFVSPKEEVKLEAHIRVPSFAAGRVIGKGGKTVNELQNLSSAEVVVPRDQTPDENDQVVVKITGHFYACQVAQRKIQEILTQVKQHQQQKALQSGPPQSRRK
Chain of IMP3 KH3-4 (chain, as listed by the source): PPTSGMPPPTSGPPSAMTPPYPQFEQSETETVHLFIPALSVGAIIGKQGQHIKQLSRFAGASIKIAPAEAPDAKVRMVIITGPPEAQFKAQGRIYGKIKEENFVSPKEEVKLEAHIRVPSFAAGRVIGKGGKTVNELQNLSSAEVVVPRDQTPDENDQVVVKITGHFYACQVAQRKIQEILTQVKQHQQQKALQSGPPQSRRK
Chain of IMP3 KH1-2 (chain, as listed by the source): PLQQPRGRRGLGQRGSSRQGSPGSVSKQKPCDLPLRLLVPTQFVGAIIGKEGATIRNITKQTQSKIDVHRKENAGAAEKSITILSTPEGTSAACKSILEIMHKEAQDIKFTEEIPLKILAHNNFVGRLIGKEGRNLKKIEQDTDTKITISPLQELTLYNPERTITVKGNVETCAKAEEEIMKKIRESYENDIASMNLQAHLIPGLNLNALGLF

Row | Sequence | 6-mer SELEX enrichment z-score (IMP3 KH1-4) | 6-mer SELEX enrichment z-score (IMP3 RRM1-2) | 6-mer SELEX enrichment z-score (IMP3 full-length) | 6-mer SELEX enrichment z-score (IMP3 KH1-2) | 6-mer SELEX enrichment z-score (IMP3 KH3-4)
1 | GACGCG | -1.22 | -0.43 | -0.633 | -1.03 | -1.08
2 | TCAAAA | -0.988 | -0.146 | -0.81 | -0.798 | -0.825
3 | TGAGCC | -1.46 | -0.671 | -0.856 | -1.29 | -1.41
4 | CGTCGA | -1.02 | 0.045 | -0.162 | -0.927 | -0.866
5 | ACTACC | -0.699 | -0.628 | -1.05 | -0.609 | -1.08
6 | AATAGT | 0.663 | -0.232 | 0.091 | 0.44 | 0.862
7 | CTAACT | 0.316 | -0.274 | -0.474 | 0.344 | 0.283
8 | TTACAC | 1.19 | 0.774 | 0.633 | 1.55 | 0.949
9 | ATGGAT | 0.956 | -0.128 | 0.106 | 0.6 | 1.08
10 | CCTCAA | -1.1 | -0.073 | -0.709 | -0.868 | -1.3
11 | AGGAAC | 0.051 | 0.038 | -0.125 | -0.085 | -0.031
12 | TGCTCG | -0.544 | 0.26 | 0.056 | -0.34 | -0.304
13 | TTTCTG | 0.424 | 0.35 | 0.179 | 0.538 | 0.467
14 | GGCACT | 0.737 | 0.581 | 1.37 | 0.474 | 0.699
15 | ACTCCG | -0.901 | -0.455 | -0.544 | -0.578 | -1.19
16 | AACCCG | -2.55 | -1.55 | -2.1 | -2.4 | -3.01
17 | CCCTAT | 0.02 | -0.05 | -0.406 | -0.068 | -0.35
18 | GGACCC | -1 | -0.524 | -0.295 | -0.976 | -1.47
19 | GCCCGA | -2.31 | -1.05 | -1.49 | -2.04 | -2.31
20 | AGAGTA | -0.429 | -0.384 | -0.291 | -0.389 | -0.071

Row | Sequence | 6-mer SELEX enrichment z-score (IMP3 KH1-4) | 6-mer SELEX enrichment z-score (IMP3 RRM1-2) | 6-mer SELEX enrichment z-score (IMP3 full-length) | 6-mer SELEX enrichment z-score (IMP3 KH1-2) | 6-mer SELEX enrichment z-score (IMP3 KH3-4)
21 | CGGCGG | 0.201 | 0.178 | 1.29 | 0.314 | 0.25
22 | GCCAGA | -0.041 | -0.708 | -0.033 | -0.017 | -0.112
23 | GGTCCA | 0.329 | 0.035 | 0.504 | 0.163 | 0.057
24 | AAATAC | 0.574 | -1.18 | -0.781 | 0.863 | 1.12
25 | CGGAGC | -1.34 | -0.365 | 0.011 | -1.12 | -1.11
26 | TAACAT | 2 | 0.794 | 1.22 | 2.04 | 2.38
27 | TTCTCC | 0.517 | 0.225 | -0.049 | 0.532 | 0.085
28 | CTGCCG | -0.222 | -0.315 | -0.015 | 0.027 | -0.554
29 | AGGTAG | -0.238 | 0.218 | 0.006 | -0.149 | 0.037
30 | AGTTAG | 0.325 | 0.175 | 0.026 | 0.195 | 0.289
31 | ATCGAC | -1.15 | -0.148 | -0.251 | -1.18 | -1.24
32 | CTACTT | 0.233 | 0.285 | -0.224 | 0.298 | 0.228
33 | AGCGCG | -1.05 | -0.071 | -0.084 | -0.916 | -0.733
34 | ATAGGG | 0.796 | 0.134 | 0.434 | 0.789 | 1.16
35 | CGAAGC | -1.71 | -0.729 | -0.792 | -1.53 | -1.61
36 | GCTCTT | -0.001 | 0.553 | 0.222 | 0.142 | 0.114
37 | ACTGCC | -0.142 | -0.421 | -0.627 | -0.076 | -0.807
38 | TATGGG | 0.557 | 0.211 | 0.227 | 0.434 | 0.78
39 | CAGAAG | -0.082 | -0.237 | 0.142 | -0.021 | 0.013
40 | TTCTAA | 0.57 | -0.061 | -0.129 | 0.586 | 0.703

Row | Sequence | 6-mer SELEX enrichment z-score (IMP3 KH1-4) | 6-mer SELEX enrichment z-score (IMP3 RRM1-2) | 6-mer SELEX enrichment z-score (IMP3 full-length) | 6-mer SELEX enrichment z-score (IMP3 KH1-2) | 6-mer SELEX enrichment z-score (IMP3 KH3-4)
41 | TCGAAT | -0.476 | -0.308 | -0.365 | -0.506 | -0.308
42 | TTTCGC | 0.089 | 0.325 | -0.053 | 0.062 | 0.006
43 | TGATTC | 0.579 | 0.049 | 0.019 | 0.384 | 0.523
44 | CAGTGA | 0.361 | -0.147 | 0.278 | 0.24 | 0.169
45 | AGGGGA | 1.16 | -0.28 | 0.121 | 1.32 | 1.16
46 | AGGCGC | 0.057 | 0.351 | 0.886 | 0.104 | 0.097
47 | GAGTGC | -0.683 | -0.106 | -0.228 | -0.637 | -0.591
48 | TCCCGT | -0.461 | -0.176 | -0.191 | -0.363 | -0.582
49 | ATCTGA | -0.196 | -0.295 | -0.145 | -0.141 | -0.233
50 | CGCTTG | -0.45 | 0.208 | -0.149 | -0.332 | -0.364
51 | AAGCAT | -0.189 | 0.833 | 0.326 | -0.369 | -0.247
52 | TATACC | -0.097 | -0.242 | -0.598 | -0.078 | -0.233
53 | ATTCGT | 0.237 | 0.228 | 0.038 | 0.032 | 0.21
54 | CGAGCT | -1.68 | 0.185 | -0.322 | -1.48 | -1.34
55 | ATAGCT | 0.313 | 0.12 | 0.15 | 0.304 | 0.416
56 | CGAAAA | -1.93 | -2.85 | -2.52 | -1.76 | -1.34
57 | GTTCTT | 0.222 | 0.462 | 0.172 | 0.235 | 0.326
58 | AGATTT | 0.771 | -0.152 | -0.038 | 0.662 | 1.33
59 | ACACCC | -1.49 | -0.539 | -1.68 | -1.53 | -2.67
60 | GTCTAG | -0.34 | 0.232 | -0.064 | -0.257 | -0.144
